Results: article PMC2720784 (Biochemistry, 2009)

Tests used:
[1] = target: T1, wild-type hNCRD (human SP-D trimeric neck+CRD) (Homo sapiens, UniProt P35247); test: biochemical
T1 sequence (P35247 223-375 limits assumed): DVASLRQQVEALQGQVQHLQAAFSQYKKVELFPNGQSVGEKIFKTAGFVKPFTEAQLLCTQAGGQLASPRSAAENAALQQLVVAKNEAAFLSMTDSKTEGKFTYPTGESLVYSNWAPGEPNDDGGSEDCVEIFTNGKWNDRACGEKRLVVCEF

[2] = target: T1, wild-type hNCRD (human SP-D trimeric neck+CRD); conditions: p<0.001
[3] = target: T2, hNCRD fusion proteins (Homo sapiens, UniProt P35247)
T2 sequence (P35247 223-375 limits assumed): T1 sequence (P35247 223-375 limits assumed)

OC[C@H]1OC(O)[C@@H](O)[C@@H](O)[C@@H]1O (stereo partly drawn) [D-mannose]
IC50 [1]: 3800 µM

CO[C@H]1O[C@H](CO[C@H]2O[C@H](CO)[C@@H](O)[C@H](O)[C@@H]2O)[C@@H](O)[C@H](O[C@H]2O[C@H](CO)[C@@H](O)[C@H](O)[C@@H]2O)[C@@H]1O [TM core, methyl 3,6-Di-O-(α-D-mannopyranosyl)-α-D-mannopyranoside]
higher affinity than for mannose [2]: approximately 2 fold | IC50 [1]: 1600 ± 150 µM

OC[C@H]1O[C@H](O[C@@H]2C(O)O[C@H](CO)[C@@H](O)[C@@H]2O)[C@@H](O)[C@@H](O)[C@@H]1O (stereo partly drawn) [alpha1–2 DM, alpha1–2 linked dimannose]
higher affinity than for mannose [2]: approximately 2 fold

Manα1–2Manα1–2Man- [ligand 4]
rank of arrayed ligand for wild-type hNCRD [3]: best ligand
